Measured values taken from the supplement of paper PMC12067093, “Discovery and optimisation of a covalent ligand for TRIM25 and its application to targeted protein ubiquitination” (Chemical Science, 2025).
About 21,000 targets were measured; listed, in parts, are those with the largest changes and a random draw of the rest.

Compound: CC1Cc2ccccc2N1C(=O)C1CCCN(C1)C(=O)CCl (mixture of isomers) [TRIM25 ligand 11 (diastereomer mixture)]
Assay: probe-labelled cysteine peptide fold change vs DMSO (competition) (log2 fold change); higher = less target engagement (more negative = stronger competition)
Details: THP-1, incubation time: 4 h
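Also: competitive chemoproteomic profiling in live THP-1 cells with an iodoacetamide desthiobiotin (IA-DTB) probe, comparing probe-labelled peptide intensities in compound-treated cells against DMSO-treated controls.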

Target	probe-labelled cysteine peptide fold change (10 µM)	probe-labelled cysteine peptide fold change (50 µM)
PTPRC_P08575_1261_VKQDANCVNPLGAPEK (UniProt P08575)	-0.0737	-0.153
RCHY1_Q96PM5_43_LCHDNNEDHQLDR (UniProt Q96PM5)	0.326	0.536
RABEP1_Q15276_718_EQIQAEQCLK (UniProt Q15276)	-0.00537	-0.052
RNF213_Q63HN8_2503_EVLCDHMVDGQPLAEDSGLHIIAACNPYRK (UniProt Q63HN8)	0.0484	-0.0993
RAN_P62826_120_VCENIPIVLCGNKVDIK (UniProt P62826)	-0.364	-0.326
PXK_Q7Z7A4_196_DFQCLIK (UniProt Q7Z7A4)	0.378	0.185
RNH1_P13489_305+313_LLCETLLEPGCQLESLWVK (UniProt P13489)	0.054	-0.0643
RASGRP4_Q8TDF6_502_LSGNFPFACHGLHPPPR (UniProt Q8TDF6)	-0.133	-0.088
QARS_P47897_657_GPSGCVESLEVTCR (UniProt P47897)	0.172	0.386
RBBP5_Q15291_100_LVSASTDNIVSQWDVLSGDCDQR (UniProt Q15291)	-0.0552	-0.0987
PTDSS1_P48651_347_QYYAYLTDTQCK (UniProt P48651)	0.288	0.00859
RAB4A_P20338_28_SCLLHQFIEK (UniProt P20338)	0.131	0.0331
RBM14_Q96PK6_108_VIECDVVK (UniProt Q96PK6)	-0.0592	0.00146
RNF213_Q63HN8_1677_EGGDVTELLAALCR (UniProt Q63HN8)	0.505	0.57
PTPN11_Q06124_490_GVDCDIDVPK (UniProt Q06124)	0.0387	0.0834
RNF213_Q63HN8_4017_DPVCLPCDHVHCLR (UniProt Q63HN8)	0.244	0.279
RNASE2_P10153_138_YAQTPANMFYIVACDNR (UniProt P10153)	0.0539	-0.146
RFTN1_Q14699_211_GDHASLENEKPGTGDVCSAPAGR (UniProt Q14699)	0.201	0.0329
PUM3_Q15397_185_VIQCYIQYGNEEQRK (UniProt Q15397)	-0.199	-0.0297
PSMG2_Q969U7_168+178_CIPEIDDSEFCIR (UniProt Q969U7)	0.0182	0.1
ROCK2_O75116_330_NLICAFLTDR<|>ROCK1_Q13464_314_NLICAFLTDR (UniProt Q13464+O75116)	-0.569	-0.204
RNH1_P13489_209+216_LESCGVTSDNCR (UniProt P13489)	0.031	–
RING1_Q06587_398_VSRPLELCYAPTK (UniProt Q06587)	-0.103	-0.215
RPL14_P50914_54_CMQLTDFILK (UniProt P50914)	-0.148	-0.282
RABGAP1_Q9Y3P9_476_KNNTDTLYEVVCLESESERER (UniProt Q9Y3P9)	-0.104	-0.264
PSMA6_P60900_115_YGYEIPVDMLCKR (UniProt P60900)	-0.65	-0.444
PSMG2_Q969U7_195_TLYDESCSK (UniProt Q969U7)	-0.167	-0.0376

Target	probe-labelled cysteine peptide fold change (10 µM)	probe-labelled cysteine peptide fold change (50 µM)
PTPMT1_Q8WUK0_127_YQSLGQCVYVHCK (UniProt Q8WUK0)	0.0332	0.197
RGPD3_A6NKT7_220_EYLESLQCLESDKSDWR<|>RGPD8_O14715_220_EYLESLQCLESDKSDWR<|>RGPD1_P0DJD0_211_EYLESLQCLESDKSDWR<|>RGPD2_P0DJD1_219_EYLESLQCLESDKSDWR<|>RANBP2_P49792_220_EYLESLQCLESDKSDWR<|>RGPD4_Q7Z3J3_220_EYLESLQCLESDKSDWR (UniProt Q7Z3J3+P49792+P0DJD1+P0DJD0+O14715+A6NKT7)	0.0118	-0.0884
RIF1_Q5UIP0_1718_TFQTLECQHK (UniProt Q5UIP0)	0.177	-0.0709
PTBP3_O95758_68_IPCDVTEAEIISLGLPFGK (UniProt O95758)	0.0678	0.032
PSTPIP1_O43586_213_TTCEAFQLQEFDRLTILR (UniProt O43586)	-0.24	-0.28
PSMD2_Q13200_205_EIVPYNMAHNAEHEACDLLMEIEQVDMLEK (UniProt Q13200)	-0.106	-0.368
RANBP2_P49792_2710_ECIIVWEK (UniProt P49792)	-0.0786	-0.154
QSER1_Q2KHR3_283_SCSTEQPLTSTK (UniProt Q2KHR3)	-0.0163	-0.203
PSMA5_P28066_47_LGSTAIGIQTSEGVCLAVEK (UniProt P28066)	0.0727	0.115
RABGGTA_Q92696_516_LQELLLCNNR (UniProt Q92696)	-0.164	-0.00022
PYCR2_Q96C36_232_DNVCSPGGATIHALHFLESGGFR (UniProt Q96C36)	0.0855	-0.0775
ROCK1_Q13464_1261_PLWHVFKPPPALECR (UniProt Q13464)	0.0252	0.186
RP2_O75695_131_LEVFLCCATQPIIESSSNIK (UniProt O75695)	0.2	0.142
RABGAP1_Q9Y3P9_155_LTYLGCASVNAPR (UniProt Q9Y3P9)	0.181	0.0897
RARS_P54136_150_HLPDNECIEK (UniProt P54136)	-0.0415	0.0172
PSMA7_O14818_70_ICALDDNVCMAFAGLTADAR (UniProt O14818)	0.0906	0.243
RECQL5_O94762_977_CESEADWHGLCGPQR (UniProt O94762)	0.184	0.135
RNF169_Q8NCN4_132_DDGQADSEVLGECAR (UniProt Q8NCN4)	-0.115	-1.06
PTER_Q96BW5_38_TLTHEHLAMTFDCCYCPPPPCQEAISK (UniProt Q96BW5)	-0.0466	-0.326
RIPOR1_Q6ZS17_925_CQEAWALER (UniProt Q6ZS17)	0.111	0.0416
RNASE2_P10153_138_YAQTPANMFYIVACDNRDQR (UniProt P10153)	-0.64	-0.589
PSMA7_O14818_91_ARVECQSHR (UniProt O14818)	-1.58	-0.169
RBPJ_Q06330_252_LVCSVTGMALPR (UniProt Q06330)	0.0145	-0.0369
RBM5_P52756_649_MACLLCR (UniProt P52756)	-0.00855	0.0626
RAB3GAP2_Q9H2M9_636_SQELESVDEGLLQFCANK (UniProt Q9H2M9)	0.177	0.074
RLF_Q13129_564_RECIEAR (UniProt Q13129)	-0.00324	0.153
RNF126_Q9BV68_16_YFCHCCSVEIVPR (UniProt Q9BV68)	0.0422	0.142

Target	probe-labelled cysteine peptide fold change (10 µM)	probe-labelled cysteine peptide fold change (50 µM)
RNASET2_O00584_48_KLIMVQHWPETVCEK (UniProt O00584)	-0.192	-0.349
RAI14_Q9P0K7_168_DLDGNIPLLLAVQNGHSEICHFLLDHGADVNSR (UniProt Q9P0K7)	0.0328	0.563
RABGAP1_Q9Y3P9_433_VCSPNER (UniProt Q9Y3P9)	0.28	0.513
PWWP2B_Q6NUJ5_480_LHTQSVSECITEDGR (UniProt Q6NUJ5)	-0.0232	0.123
RBBP5_Q15291_43_WGTLLAVGCNDGR (UniProt Q15291)	-0.0445	-0.0011
QARS_P47897_111_SHPLDPIDTVDFERECGVGVIVTPEQIEEAVEAAINR (UniProt P47897)	0.149	-0.248
RAP1GDS1_P52306_560_YNSMVLICALMGSECLHK (UniProt P52306)	-0.301	-0.167
ROCK2_O75116_428_ENLLLSDSPSCR (UniProt O75116)	0.109	-0.0572
RIPOR1_Q6ZS17_196_GHREYTESMCLLESELEAQLGEFHLR (UniProt Q6ZS17)	0.611	0.655
PSMD14_O00487_238_SWMEGLTLQDYSEHCK (UniProt O00487)	0.0819	-0.0838
RAB32_Q13637_162_DSSQSPSQVDQFCK (UniProt Q13637)	0.143	0.144
RBM22_Q9NW64_165_NRPHICSFWVK (UniProt Q9NW64)	-0.382	-0.461
RANBP6_O60518_792_SIEVMGDGCLNDEHLEELGGILK (UniProt O60518)	-0.039	-0.173
PXK_Q7Z7A4_252_KYCNPK (UniProt Q7Z7A4)	0.0209	-0.0879
PUM3_Q15397_610_GAIILSSLLQSCDLEVANK (UniProt Q15397)	-0.0503	0.098
RPL36A_P83881_77_LECVEPNCR<|>RPL36AL_Q969Q0_77_LECVEPNCR (UniProt Q969Q0+P83881)	0.165	-0.125
PTPN1_P18031_344_EETQEDKDCPIKEEK (UniProt P18031)	-0.668	-0.558
RANGAP1_P46060_152_LNNCGMGIGGGK (UniProt P46060)	-0.123	-0.108
ROCK2_O75116_1293_PLWHMFKPPPALECR (UniProt O75116)	-0.623	0.0494
PTPN11_Q06124_463_QESIMDAGPVVVHCSAGIGR (UniProt Q06124)	0.188	-0.225
RPL18A_Q02543_109_EYRDLTTAGAVTQCYR (UniProt Q02543)	-0.642	-0.349
PXN_P49023_443+446_TWHPEHFFCAQCGAFFGPEGFHEK (UniProt P49023)	0.00021	-0.112
PTPN11_Q06124_333_SYIATQGCLQNTVNDFWR (UniProt Q06124)	0.353	0.172
PTGS1_P23219_158_DCPTPMGTK (UniProt P23219)	-0.0823	-0.0821
RBFA_Q8N0V3_338_TEDGHSCGASR (UniProt Q8N0V3)	0.364	-0.0691
RPAP1_Q9BWH6_185_GPSVGEVVPNVGPPEGAVTCETPTPR (UniProt Q9BWH6)	0.916	-0.309
